Experimental data from the supplement of paper PMC11417369.
The other results are listed elsewhere or left out.

tested on: PfSIP2 AP2 domain 1 (GST-tagged); experiment: gcPBM binding intensity (ln(normalized median fluorescence intensity)); higher = stronger DNA binding
Outline: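 For binding intensity, the highest Masliner-normalised natural-log median intensity across replicate spots of either probe orientation was taken. Protein bound to the array was stained with Alexa488 anti-GST antibody and scanned at 488 nm. The protein, GST-tagged P. falciparum DNA-binding domains from E. coli at about 25 μg on average, had been applied for 1 h to an Agilent 4 × 180k array of primer-extended double-stranded 36-bp intergenic genomic probes and negative controls.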

Sequence | gcPBM binding intensity (ln)
AAATAATTTATAAATAAATACATTGTTACTTTTTCT [GTGCAC_negctrl_site639] | 6.74
ACTAATTACTATAAAACACACATATATTTATTTATA [CACACA_site7263] | 7.17
CACATGTATTTATAGGTGCGTAAAAACACTTTATAT [GTGCAC_site9501] | 8.77
TTATAGAAACATTGGTGTACGATATTTACTTCTTTC [XGTACX_site7314] | 6.81
GGAATAGTCGGGTGCATACACACCTTAAATATAATA [CACACA_site1081] | 11.4
AAAGAAAATTCAATAGTGCATAAAAATATATATGTT [GTGCAC_site9680] | 8.3
TAAAAAAATTCATGCACACGAAATAAAAAGCACCTT [CACACA_site4667] | 8.97
AAACATAAATTTTATTGTACATTATATAGAATTTTC [XGTACX_site576] | 6.81
AATACATACATACATACACACATATATATATATTAT [CACACA_site3575] | 7.29
TTTTCATTTTTTCGTTGTACATAAATAATATATATT [XGTACX_site856] | 7.59
TTTTTTAAAAGATAATATTTTATTAATGTATTCTCA [GTGCAC_negctrl_site598] | 6.64
TTTTACTATACTTATGCACACAAGATATATACATAT [CACACA_site2968] | 7.36
TATTAAAAGGTGAGTACACACATATATGTGTATATA [CACACA_site7070] | 6.93
ATATATATATATATATGTACACAGGACAATAATCCT [XGTACX_site6383] | 9.34
ATCATGAAATATATTTGTACACATAATAATATAATA [XGTACX_site8798] | 7.18
ATTTGGCAGAAACACACACACACACCCACCCACATA [CACACA_site589] | 7.01
TTTTTTTTTATAAATACACACGTACGGGTGCATAAC [CACACA_site8444] | 11.3
TATATATATATAACAACACACACAGATCATAAAACT [CACACA_site8670] | 9.26
TATTTTTTTTCGTAATGTACATAAAAAATGCAAAAA [XGTACX_site8491] | 7.6
ATTATATAATTTAATCGTACACAAATATTTGTTAGT [XGTACX_site5913] | 7.18
CCATAATTATATGCCAGTACATATTTGTAACAAAAA [XGTACX_site851] | 7.19
TTTATTTTTCATTGGGGTACACAAGTTTATTTTATT [XGTACX_site4263] | 7.57

Sequence | gcPBM binding intensity (ln)
TAAGTAATAGTTTGTGCACACTCAAGTATATCATAT [CACACA_site4035] | 9.42
TATTATTCCATGTGAAGTACAGAAATATAAATAAAT [XGTACX_site5106] | 7.25
CTTTTAAAAAAATTCATGCACACGAAATAAAAAGCA [CACACA_site929] | 7.69
CAAAATATTTTTATAACACACATATATAGAATGTGC [CACACA_site1145] | 6.83
TATCATCTTAATATCGTGCACATTTATAGAACGAAA [GTGCAC_site9992] | 10
TTTTACTATACTTATGCACACAAGATAAATACATAT [CACACA_site5619] | 7.7
ATACCTCAAATTGATACACACAAAAAAAGTAAATTA [CACACA_site3134] | 7.18
CTATTTTAATATTTTACACACCATGTAAAATATATA [CACACA_site5732] | 6.99
TTTTTATTCGTTAAATGTACAAAAAAAATGTTATAT [XGTACX_site2804] | 7.24
ATACACTAGAAAATTTTATAGTATTATTAATGTTAA [GTGCAC_negctrl_site101] | 6.85
GCTTAGTTATATAACTGTACTATTTTTATTTATATG [XGTACX_site884] | 7.14
ATAAAGTAAGAAGAAATAATGATTTTCATGGAAAAC [XGTACX_negctrl_site322] | 6.54
AATAAGATAAGGAAAAGTACTTATAATTAAACTAAT [XGTACX_site1850] | 7.11
CTCATAGTTGGGTGCACACAAAAAATTAAAAAAATA [CACACA_site3032] | 12.3
AAATACATACATTAATGTACAAATAGAAACACTCTT [XGTACX_site1512] | 6.84
AAATATAAGTAAATAAATAAATATATAAATATATAA [TGCATGCA_negctrl_site441] | 6.64
CTTATACAAAAAAAAAGTACATAACATAATAAGAAT [XGTACX_site6782] | 7.17
ACAGATGATCAAAATTGTACAGAGTTATATTATATT [XGTACX_site4642] | 6.9
TTATTTAAAAATAGCACACATTATATATATATATAT [CACACA_site5556] | 9.01
GATAAACCATATATAACACACATATGAATATTGCAA [CACACA_site6735] | 7.07
ATATCATATATAAGTCGTACGATGAATAGAATTTTT [XGTACX_site7586] | 6.97
CACCCATACAGACATACACACACATATATATTAATA [CACACA_site8077] | 7.36

Sequence | gcPBM binding intensity (ln)
CACAAACAGACAAACACACACACACGGACATACATA [CACACA_site6350] | 7.19
GTATATATGTTTTATACACACATTAAAGGAAATATA [CACACA_site984] | 7.03
TATAATATATAAAAATGTACACATAAATATAAGTAG [XGTACX_site665] | 7.12
ACATGCAAGAAGAAATGTACTTAACATCTATATAGA [XGTACX_site7338] | 6.89
ACTAAATAAATAAATATAATATATAAATATGTATGT [TGCATGCA_negctrl_site583] | 6.89
AAAATTAATTTATTTACACACAATATTAAAATATTT [CACACA_site7512] | 6.87
TTTTATACATATTTTACACACTAAAATATACAGATA [CACACA_site4333] | 7.16
TTACATATTCATAAAAGTACATAATTATAAAAGGTA [XGTACX_site906] | 7.31
AATCAAAAAGGAACCATAATATTACAACTATATATA [CACACA_negctrl_site381] | 6.72
TAAAACTTAATGTTTTGTACATATTCTTCTTTATTT [XGTACX_site4271] | 6.79
GCCATAAAGATATATACACACATAAAAAAAAGTTAT [CACACA_site6674] | 7.17
AAAAAAAAAATTAAATGTACATATATAATATATATA [XGTACX_site7245] | 7.46
TTAACAAAGAAACACACACACACACCCAAAAAAAAA [CACACA_site516] | 6.96
ATTATTATAGATAAAACACACAATTTTGTTTTCACA [CACACA_site7792] | 6.8
AAACAATTATTATATTGTACATATATTACATTATTA [XGTACX_site1089] | 6.82
TTATATTTTATTATGTGTACGTATATAATATAATAT [XGTACX_site6230] | 7.46
ATATGTATATAATAAGAACACACATATATTTAATTT [CACACA_site8961] | 6.85
ATAAAAATATATGAAACACACAGTTTCTATAAGAAA [CACACA_site4156] | 6.78
GTTATTAAATAATTCACACACATATATAAATAAATA [CACACA_site7129] | 7.1
TACAATATAATTTAATGTACATGTGAATATATATAT [XGTACX_site4675] | 8.58
TAATATACTATAAATACACACAAGTGTACATACTTC [CACACA_site983] | 7.07
TTAAAAAGAGGTGACACACACATATAAATCTAAATC [CACACA_site3738] | 6.66

Sequence | gcPBM binding intensity (ln)
TATTAAAAGGTGAGTACACACATATCTGAGTATATA [CACACA_site5192] | 7.04
TTGTGCTAAACAAAAAAAAATATATATAAAAAAATA [XGTACX_negctrl_site388] | 7.34
CATCCACATAGATGTACACACATATATATATATATA [CACACA_site5616] | 9.5
ATATGTATATTTTTGATGTGCTTTTATTTGGTTATT [CACACA_negctrl_site626] | 6.83
CTTCATAAAAATTGCACACATATAATAATGTACATA [CACACA_site2212] | 7.44
AAAAAAAATACATACACACACACACGCACATATATA [CACACA_site7645] | 7.23
ATTTTTTTATAATCAACCCATTTCCTACATTTTTAT [CACACA_negctrl_site1237] | 6.96
ATATCTCAACATATCACACATATATATATATAATAT [CACACA_site5018] | 7.35
AATAAATATAAATAAATAAATATATATATATATTTG [CACACA_negctrl_site1486] | 6.98
AATTAAACTTTGTTTTTGTTTTTTTTTTTTATATTT [CACACA_negctrl_site1316] | 6.76
ATATATATAAATATATGTACATAAATATATTTGTAA [XGTACX_site6715] | 7.46
TGGTGATATACGAAATGTACGCAAATCACAAAATAA [XGTACX_site8836] | 7.01
TCTTTAACAAGTTAAACACACATACCTATATACATA [CACACA_site7237] | 6.98
AAATAAAAATTAAAAAAATAGAAACGAATTGAATGC [TGCATGCA_negctrl_site365] | 7.2
CGCGTATAACGAAATTGTACAAAAAAAATTAAACAT [XGTACX_site6813] | 6.86
AATTTTGAGATGTGGTGTACACAAAATTAGTTAGAC [XGTACX_site7033] | 7.53
TCAACGATCACTCGGTGTACTATAAATGAGAGAATT [XGTACX_site1820] | 6.74
ATTAAATTAAAATAATGTACTTAATACTTTTGCTTA [XGTACX_site8404] | 6.77
AACAATTTTTAAAGGTGTACAATATGTATATAAGAA [XGTACX_site254] | 7.36
ATATATATATATAAAGGTACACATTTATTAAATATA [XGTACX_site7102] | 9.39
TAATATATATAACATATACACACGTTCATATATATA [CACACA_site462] | 6.92
TATTTGCAATATTATACACACATTAGATATTGCAAA [CACACA_site7565] | 7.14
